Assay results as given in the supplement of paper PMC3334620.
The full ranking holds about 33,000 sequences; the median of “E-score (-0.5 to 0.5)” is about -0.032, and the highest 2% start at about 0.36. Some of the results follow.

target: T1, Sko1 (UniProt Q02100); assay: PBM E-score (8-mer binding enrichment) (E-score (-0.5 to 0.5)); higher = stronger / more preferred TF binding; most listed sequences are background and not binding sites; settings: protein concentration: 200 nM; construct: GST-full length
T1 sequence: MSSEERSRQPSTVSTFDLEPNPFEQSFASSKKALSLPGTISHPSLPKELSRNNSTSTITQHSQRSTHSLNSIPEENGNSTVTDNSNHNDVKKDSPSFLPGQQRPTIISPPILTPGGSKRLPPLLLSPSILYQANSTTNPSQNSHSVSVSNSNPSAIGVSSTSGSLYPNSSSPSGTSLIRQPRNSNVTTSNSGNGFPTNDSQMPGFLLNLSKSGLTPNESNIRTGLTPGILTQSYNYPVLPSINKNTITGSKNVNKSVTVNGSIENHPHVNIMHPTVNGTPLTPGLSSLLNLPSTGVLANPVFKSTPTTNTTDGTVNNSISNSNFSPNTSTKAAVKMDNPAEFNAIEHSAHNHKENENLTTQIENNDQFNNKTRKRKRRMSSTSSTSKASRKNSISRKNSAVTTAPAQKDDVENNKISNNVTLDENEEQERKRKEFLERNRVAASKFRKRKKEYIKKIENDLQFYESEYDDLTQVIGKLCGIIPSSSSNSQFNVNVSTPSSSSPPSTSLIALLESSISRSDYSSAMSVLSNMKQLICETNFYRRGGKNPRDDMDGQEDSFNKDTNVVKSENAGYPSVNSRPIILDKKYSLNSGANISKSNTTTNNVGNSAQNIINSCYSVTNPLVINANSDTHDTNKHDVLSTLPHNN
Method in brief: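 Yeast transcription factors, full-length or as DNA-binding domains, were expressed with a GST tag using PURExpress in vitro transcription/translation. At about 100-200 nM they were applied to universal all-10-mer Agilent arrays, double-stranded by primer extension on fresh or once-stripped slides. Fluorescent anti-GST detected bound protein, and masliner normalised the scans. E-scores for ungapped eight-base words, pooled with reverse complements, came from the Universal PBM Analysis Suite.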

Sequence | PBM E-score
ATAATAGA | 0.163
CGACCACC | -0.243
ATACACGA | 0.124
AGACAGGC | -0.376
AAGGTCCT | -0.168
AATCGAGT | -0.0426
CATACATA | 0.285
CGATACCC | -0.058
AATAACGA | 0.212
AGTGTTCG | -0.00769
TCATAACA | 0.268
ATCTCTAA | 0.00152
CCTTACGA | 0.145
TAAAATTA | 0.276
AGAACCCG | -0.129
ATTTATCC | 0.0903
CACATAGA | 0.0235
GAAATTAA | 0.289
CACTCTCA | -0.0435
ACAGATCA | -0.0549
GGCGTGGA | -0.168
CTCCGTTC | -0.127
AATCTAGC | -0.126
GCATCAGC | -0.125
TCCCAAAA | -0.048

Sequence | PBM E-score
TAGCATCA | 0.186
CACAGACC | -0.0703
CAAGCAGG | -0.249
AATCTGAA | 0.127
CGTCTCGC | -0.0776
AGCAACTC | -0.164
ACGGCCAA | -0.178
ATCAGACC | -0.0486
GATGTAGC | -0.0207
GGAAGTCC | -0.386
ATCGCAAC | 0.0527
AATGAGCT | 0.127
AATATGCA | -0.0191
ACCTCTTA | 0.0216
AAAGGCTC | -0.235
TCTCACAA | 0.0132
CTGATTCA | 0.00536
CGTCGATA | 0.146
ATCAAAAC | 0.0239
GACTATCA | -0.086
CAGTTGGA | -0.0219
GAAGAGTC | -0.013
CCCTGATA | -0.149
ACGGATGG | -0.14
ATGTTAAA | 0.205

Sequence | PBM E-score
CATTGCCC | -0.384
AGGGCGAG | -0.282
AGTAATCC | 0.0657
ACGAGGGC | -0.178
GCCTCATA | 0.0655
ACTGGTCG | -0.352
GACAGCAA | -0.0173
CGGTAAAG | -0.0232
ACTCAAGC | -0.118
GATCGCAC | 0.0864
CTGGACCC | -0.326
ACGATCTA | 0.0711
AGCGATTC | 0.0152
ATTTTATC | 0.166
AGAGGCCC | -0.45
GCCAACCC | -0.167
GAGGTTAA | -0.0755
ACGCTACC | -0.128
AAATACGA | 0.302
ACTCCTTG | -0.0755
AGTGAACG | -0.00836
CCATAGTA | -0.0911
CTGCTACC | -0.0769
CAATTACC | 0.156
GCTTAGTA | -0.0128

Sequence | PBM E-score
ATTCTCGA | 0.114
ATCGTGAC | 0.256
CTTCGGTC | -0.0632
ATCTAAAT | 0.164
CTTTCGCA | -0.0437
AACTAAAC | 0.0828
CGCCGGAG | -0.179
GCCATCGA | -0.101
CAGGAGGC | -0.0762
CGGCAAAA | 0.00383
CACGAGGC | -0.109
GGGGTCCA | -0.214
ACGAGGCA | -0.0329
CAAGGTAG | -0.224
CGGTCGTA | -0.208
GCAAAAGC | -0.0091
AAGCAATT | 0.025
AGATGTGA | 0.125
TATGAAGA | 0.153
GCATTTTA | 0.111
CGTGTGAG | 0.212
CATCGACC | -0.0723
